Assay results taken from the supplement of paper PMC3334620.
Whole data set: some 33,000 sequences, median “E-score (-0.5 to 0.5)” near -0.053, cut for the highest 2% near 0.37. The list shows a part of the results.

biological target: Hap1 (UniProt P0CE41); assay: PBM E-score (8-mer binding enrichment) (E-score (-0.5 to 0.5)); higher = stronger / more preferred TF binding; most listed sequences are background and not binding sites; settings: protein concentration: 200 nM; construct: GST-DNA-binding domain
In short: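 Universal all-10-mer Agilent arrays, fresh or stripped once, were converted to double-stranded form by primer extension. GST-tagged yeast transcription factors from PURExpress in vitro transcription/translation, full-length or DNA-binding domain only, were applied at about 100-200 nM and detected with fluorescent anti-GST. After masliner normalisation, the Universal PBM Analysis Suite scored each ungapped eight-base word together with its reverse complement by E-score.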

Chain of UniProt P0CE41 (P0CE41 whole entry, the tested form may be a part): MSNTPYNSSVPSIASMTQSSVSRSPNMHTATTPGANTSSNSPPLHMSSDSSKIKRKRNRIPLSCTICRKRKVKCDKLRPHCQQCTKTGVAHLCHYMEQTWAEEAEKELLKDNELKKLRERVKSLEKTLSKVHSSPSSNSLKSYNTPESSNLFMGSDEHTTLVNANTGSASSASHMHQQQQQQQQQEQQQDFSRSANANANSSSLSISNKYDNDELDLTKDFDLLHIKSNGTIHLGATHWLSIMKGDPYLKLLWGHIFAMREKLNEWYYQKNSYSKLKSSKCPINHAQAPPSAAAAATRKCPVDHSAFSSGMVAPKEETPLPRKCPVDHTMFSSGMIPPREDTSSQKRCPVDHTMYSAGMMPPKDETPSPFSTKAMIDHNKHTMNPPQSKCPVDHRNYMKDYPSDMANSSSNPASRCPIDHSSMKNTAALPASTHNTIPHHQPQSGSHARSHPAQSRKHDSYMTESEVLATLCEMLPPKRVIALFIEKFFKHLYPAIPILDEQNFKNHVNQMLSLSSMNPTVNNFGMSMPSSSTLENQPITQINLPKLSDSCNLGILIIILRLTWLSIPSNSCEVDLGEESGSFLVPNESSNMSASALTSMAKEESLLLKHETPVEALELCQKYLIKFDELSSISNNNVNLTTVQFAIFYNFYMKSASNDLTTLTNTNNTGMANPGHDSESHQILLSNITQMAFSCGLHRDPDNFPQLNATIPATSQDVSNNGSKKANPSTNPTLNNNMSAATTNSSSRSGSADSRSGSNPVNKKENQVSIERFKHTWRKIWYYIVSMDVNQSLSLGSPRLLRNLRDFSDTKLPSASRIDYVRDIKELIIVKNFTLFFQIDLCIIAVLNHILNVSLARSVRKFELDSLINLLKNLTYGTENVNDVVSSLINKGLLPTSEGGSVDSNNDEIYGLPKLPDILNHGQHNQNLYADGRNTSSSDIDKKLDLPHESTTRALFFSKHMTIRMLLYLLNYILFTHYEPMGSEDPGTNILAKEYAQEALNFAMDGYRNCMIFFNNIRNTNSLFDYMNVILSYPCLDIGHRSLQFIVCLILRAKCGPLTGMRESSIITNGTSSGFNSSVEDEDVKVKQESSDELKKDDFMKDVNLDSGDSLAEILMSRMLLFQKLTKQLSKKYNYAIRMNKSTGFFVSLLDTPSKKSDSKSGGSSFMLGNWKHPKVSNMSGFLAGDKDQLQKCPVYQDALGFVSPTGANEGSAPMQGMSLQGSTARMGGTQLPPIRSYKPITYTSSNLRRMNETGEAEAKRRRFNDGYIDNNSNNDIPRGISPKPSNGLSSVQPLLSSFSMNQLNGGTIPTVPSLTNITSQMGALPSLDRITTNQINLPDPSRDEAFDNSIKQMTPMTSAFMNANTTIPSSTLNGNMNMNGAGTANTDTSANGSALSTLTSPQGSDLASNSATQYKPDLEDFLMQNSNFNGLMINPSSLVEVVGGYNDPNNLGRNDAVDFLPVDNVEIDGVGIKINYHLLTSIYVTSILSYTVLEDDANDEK

Sequence | PBM E-score
ACCAGAGA | -0.184
GCACTAAA | 0.045
GGCGAATA | 0.225
GTTAACGA | -0.105
CAGCTGGA | -0.141
ACTGGACG | 0.00727
AGATTGTC | 0.0974
GGAGTCAA | 0.0955
CTATTTGA | -0.0067
TAATGTCA | -0.0749
GAAGATAC | 0.0677
CCCACCCA | 0.0398
AACTAGGA | -0.0167
AACTATGG | -0.0562
GCTAGGCC | -0.0489
AGTATTAT | -0.423
AGAACTTC | -0.108
CAAAAATG | 0.00202
CCTGACGC | -0.182
AAAGGTTG | -0.0906
AGGACAGG | -0.22
CAGGAGCA | -0.089
CATCGTCC | 0.18
GCGGCCGA | 0.335
AAGACTGC | -0.176

Sequence | PBM E-score
AGCGACTG | -0.306
TAAATAGA | -0.0909
ACACAGCA | -0.137
AAGTTTAG | -0.0281
CACCGCGC | 0.0964
AGGGTTTG | -0.00012
ATCACACG | -0.0143
CGGTTTGA | 0.0859
ATTCTGAA | -0.0357
ACTTAGGG | -0.0912
AAAGATTG | -0.173
CGGTTTGC | 0.196
CTGAATCC | -0.0461
GGGCGGCA | 0.268
AGGAATCG | 0.0601
CCGAGCGG | 0.395
AGCCTCAG | -0.177
GTCATTTA | -0.216
CATGGTGC | -0.139
AGGCGATC | -0.243
AAGATCCC | -0.0129
ACCGCGAT | 0.163
CGTGGTGC | -0.0732
ATTGGTGA | -0.281
GGATGAGA | -0.148

Sequence | PBM E-score
GAGTTCAA | -0.182
CCACATGC | -0.0285
ATTACACA | -0.12
AGAGTCCT | -0.181
GATCCTGC | 0.0253
CCCGAAGC | 0.332
TACTGCCA | -0.135
CACTTATG | 0.0486
GACCCAGA | -0.028
ATTAAAAC | 0.111
GCGCCAAC | -0.0255
CGCGGGAG | 0.0987
TCTTCTCA | -0.0532
ACCAGAGT | -0.222
CAGGAGCC | -0.0755
AGTGCGCA | 0.0803
ACTACGAT | -0.109
ATGCGCCG | 0.226
AGGTTGGC | 0.00268
GTGGCACA | -0.261
AGTGTACC | -0.274
CCGATGAA | 0.279
TAGCCCGA | 0.255
CTGGTTCC | 0.123
GCCGGCGC | 0.366

Sequence | PBM E-score
CTTTTTTC | 0.0157
ATCACGAC | -0.206
GCACTTGA | -0.172
CGTATCAA | -0.13
CTGATCAG | -0.0613
AACAATAG | -0.145
AGATTCTC | -0.0388
ATGCGCTC | -0.11
ACACCTTA | -0.117
TGATTCCA | -0.249
ACATAAGA | -0.108
ATTGTCGA | -0.0466
AATGCAGG | -0.175
CACATGTC | -0.172
AACAGACA | 0.0176
AGATGCAA | -0.345
AACAGCAG | -0.0345
CAATTCCG | 0.359
GACAGACC | 0.0217
GTCCGCAA | 0.305
ATGGCAGG | 0.058
GCCTTTCA | -0.00638
GGAGTCAC | -0.109
AGACAAGG | -0.0749
ATGGGCGA | -0.0906

Sequence | PBM E-score
ACTATGAA | -0.205
CGCAGCTC | -0.132
GCGTCTAA | -0.0983
AAATACTC | -0.00865
CGAGAGGC | -0.00905
ACCTACCA | -0.228
AGGTCGCG | 0.0123
CGCTAGAA | -0.0792
ATGGCGGG | 0.246
CGGCAGCA | 0.0762
TCGTGGCA | -0.16
GCGCTTAA | 0.0461
CGACTTCC | 0.038
ACCTGCTA | -0.123
ACTTATCC | 0.235
AGTTGAGG | -0.0744
GCCTGGAC | -0.0392
AAGGTTTC | 0.0735
ATTGAATC | -0.0857
AGAGAAGG | -0.0455
ATTTCACG | 0.1
AGACTAAG | -0.103
GAGCTTGA | -0.124
CGGAACCC | 0.27
GAAGGTTA | -0.0336

Sequence | PBM E-score
GCCACTGA | -0.162
CCCTTGAG | -0.0274
ATAACTTC | 0.16
AAGGAGGA | -0.208
GGAAAATA | 0.123
GAGCCTGA | -0.127
CCATAACG | 0.0784
AACGTCTA | -0.0706
GACATACA | 0.112
ACTAACTG | 0.00942
CATTTGTC | -0.0813
GTAGAGGA | -0.272
CATGAGGG | -0.145
GCCAGAGA | -0.227
ACCCTCGG | 0.299
CATACTGA | -0.207
ACACTGGA | -0.0745
GCTGTATA | -0.365
AACGCCGT | 0.273
AATCAGCG | 0.103
CCTATTGC | -0.0356
AAATACCT | -0.0139
AAATTCTC | 0.00787
GCATGGGA | -0.0766
CGACCTGA | -0.223

Sequence | PBM E-score
GATCCCAA | -0.0661
GAAATACC | 0.239
GAAGCCCC | 0.15
AGGCAGGG | -0.242
AGGAGAGG | -0.388
CAGCGAGC | 0.0705
ATAGGAAT | -0.193
CAGCATGG | -0.158
ATATGACC | 0.153
CTTCATGA | 0.0075
ACGCACCC | -0.129
CTCTGTAC | -0.252
ATCAGAAT | -0.166
CTACGTTC | -0.194
GAACGCTC | -0.103
AGCCCGCC | 0.184
AGCAATCA | -0.212
ATTTTTGG | -0.155
ACTAGTGC | -0.0626
CACACCCA | -0.0406
ACACTAAC | -0.0076
CGATAGAC | 0.226
